The values below come from article PMC6919601, “Identification of Plasmodium dipeptidyl aminopeptidase allosteric inhibitors by high throughput screening” (PLoS ONE, 2019).

About 230 (0.21%) of roughly 110,000 compounds showed an effect of 50% or more. Some of the results follow.
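Further: 30 min substrate incubation versus DMSO and 10 µM JCP410 controls.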

This test deals with DPAP1 (Plasmodium falciparum, UniProt Q8IIJ9). The test can be described thus: primary screen, percent inhibition; read by cleavage of a fluorogenic dipeptide substrate; higher = more effect of the substance. On the set-up: species or system P. falciparum D10 trophozoite lysates; single well.
Sequence of DPAP1 (Q8IIJ9 whole entry, looked up): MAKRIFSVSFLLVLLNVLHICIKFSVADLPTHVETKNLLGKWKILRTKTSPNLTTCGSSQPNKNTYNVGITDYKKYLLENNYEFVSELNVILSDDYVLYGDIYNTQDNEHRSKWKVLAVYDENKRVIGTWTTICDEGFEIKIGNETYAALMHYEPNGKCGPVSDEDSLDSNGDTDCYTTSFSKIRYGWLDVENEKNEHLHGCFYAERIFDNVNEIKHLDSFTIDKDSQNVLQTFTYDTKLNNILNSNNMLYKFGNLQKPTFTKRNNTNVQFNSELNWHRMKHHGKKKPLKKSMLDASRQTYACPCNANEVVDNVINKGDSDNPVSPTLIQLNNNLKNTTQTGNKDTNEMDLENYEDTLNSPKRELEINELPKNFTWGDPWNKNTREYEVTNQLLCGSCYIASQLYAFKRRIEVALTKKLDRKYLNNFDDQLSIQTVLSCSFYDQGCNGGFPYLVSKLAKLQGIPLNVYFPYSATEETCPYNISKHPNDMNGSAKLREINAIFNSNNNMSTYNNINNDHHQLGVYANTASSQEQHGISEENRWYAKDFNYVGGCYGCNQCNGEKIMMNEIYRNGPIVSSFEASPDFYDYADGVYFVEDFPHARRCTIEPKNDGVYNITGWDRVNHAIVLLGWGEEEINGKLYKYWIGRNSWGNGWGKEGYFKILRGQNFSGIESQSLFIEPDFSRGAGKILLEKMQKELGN
Turning to `Cc1sc(NC(=O)c2ccco2)c(C(c2ccccc2)N2CCOCC2)c1C` (stereo not shown), the “% Inhibition @ 10 uM” value was -6.64%. As for `COc1ccc(OC)c(/C=C2\SC(N3CCOCC3)=NC2=O)c1`, the figure is 0.147%; as for `O=C(O)CCCN1C(=O)C2C3CC(C2C1=O)C1C(c2cccs2)c2sc(O)nc2SC31` (stereo not shown), -1.96%.

For the compound `Cc1nn2c(-c3ccco3)nnc2c2ccccc12`, the “% Inhibition @ 10 uM” value was -1.35%. The value for `CCN(CCO)Cc1csc2c(F)c(F)c(F)c(F)c12` was -2.53%. For `CCC(C)Oc1ccccc1C1CC(=O)NC2=C1C(=O)CCC2` (stereo not shown), the “% Inhibition @ 10 uM” value amounted to 1.97%. The value for `COc1cccc(C2C(=O)N(C3CCC(C)CC3)CC(=O)N2Cc2ccccc2Cl)c1OC` (stereo not shown) was -5.92%; that for `Cc1nn(CC(=O)Nc2ccc(C(N)=O)cc2)c(C)c1Br` was 2.82%; that for `Cc1ccc(C(=O)N/C(=C\c2cccs2)C(=O)NCc2ccc3c(c2)OCO3)cc1C` was -0.864%. As for `CC(C)Cc1c(C#N)c(N)nc2sc(C#N)c(N)c12`, the figure is 5.2%; as for `COC(=O)c1cccc(-n2c(CCC(=O)O)ccc2-c2ccc(C)cc2)c1`, 7.04%. On to `Cc1ccc(S(=O)(=O)Nc2ccc(S(=O)(=O)Nc3ccc(C)cc3C)cc2)cc1`, for which the “% Inhibition @ 10 uM” value is given as -3.95%. The value for `Cc1nn(C(C)C(=O)NCCCOC(C)C)c(=O)c2nn(-c3ccccc3)c(C)c12` (stereo not shown) was 2.82%; that for `CSc1ccc(CN(CCO)CCO)cc1` was 5.01%; that for `Cc1nn(Cc2noc(C(=O)NCc3nc4ccccc4[nH]3)n2)c(C)c1Br` was 0.895%.

Take `CN1CCC(N2CCN(c3ccccc3F)CC2)CC1`: the “% Inhibition @ 10 uM” value is recorded as -0.0953%. For the compound `COc1ccccc1Oc1ccc(S(=O)(=O)Nc2cccc(C(C)=O)c2)cc1`, the “% Inhibition @ 10 uM” value came to 67.2%. As for `O=C(CCCCC(=O)Nc1ccc(F)cc1F)Nc1ccc(F)cc1F`, the figure is -2.83%; as for `Cc1ccc(C(=O)N2CCc3ccccc32)o1`, 0.52%.

Take `Cc1cc(C)n(-c2cccc(F)c2)c(=O)c1C(=O)O`: the “% Inhibition @ 10 uM” value was -0.0619%. The value for `Cc1nc2cc(C(=O)N3CCOCC3)ccc2n1-c1ccc(Br)cc1` was -2.17%; that for `O=C(NC(=S)N1CCCCCC1)C12CC3CC(CC(C3)C1)C2` was -4.96%; that for `CCOC(=O)c1cc(-c2ccc(-c3ccccc3)cc2)nc2ccc(Br)cc12` was 1.38%. As for `Cc1ccc2onc(CNC(=O)NC(C)CCc3ccccc3)c2c1` (stereo not shown), the figure is 2.99%; as for `CCN(CC)S(=O)(=O)c1ccc(NC(=O)c2cccc(NC(=O)C(C)C)c2)cc1`, 8.11%. Take `CN(CCC#N)S(=O)(=O)c1cccc2nsnc12`: the “% Inhibition @ 10 uM” value is on record as 3.32%.

Take `CCN1CCN(C(=O)Cn2ncc3ccsc3c2=O)CC1`: the “% Inhibition @ 10 uM” value worked out at 3.59%. `CN(C)CCNC(=O)c1ccc(Cn2c(SCc3ccccc3F)nc3ccncc32)cc1`: the “% Inhibition @ 10 uM” value is 10.2%. As for `CCOC(=O)c1[nH]c2ccccc2c1NC(=O)c1ccc(-c2ccccc2)cc1`, the figure is -2.74%; as for `COc1cc(/C=C2\C(=O)ON=C2C)ccc1OC(C)C`, 5.12%; as for `N#Cc1ccc(-c2nc3cc(Cl)c(Cl)cc3[nH]2)cc1`, 0.58%. As to `Cc1cccc(NC(=O)c2cccs2)c1C`, the “% Inhibition @ 10 uM” value is given as -1.28%. As for `CCCCN1C(=O)c2[nH]nc(-c3ccccc3O)c2C1c1ccc(C)cc1` (stereo not shown), the figure is -3.34%. As for `Cc1cccc(-n2nnc(-c3nc(-c4cccnc4)no3)c2N)c1`, the figure is -0.485%. As for `COc1cc(C(=O)N=C2C(C)=CC(=O)C=C2C)cc(OC)c1OC`, the figure is 1.67%. Consider `CC(C)c1[nH]nc2c1C(c1ccco1)C(C#N)=C(N)O2` (stereo not shown), for which the “% Inhibition @ 10 uM” value was -3.16%.

As to `O=C(CCCCn1c(=O)[nH]c2ccsc2c1=O)NCc1cccnc1`, the “% Inhibition @ 10 uM” value is on record as -4.06%.

For the compound `CCCCOc1ccc(C(C)NC(=O)CCS(=O)(=O)Cc2ccc(Cl)cc2)cc1` (stereo not shown), the “% Inhibition @ 10 uM” value stood at 3.24%. As for `CCOc1ccc(CCNC(=O)CCc2c(C)nc3ncnn3c2O)cc1`, the figure is -3.33%; as for `Cc1ccc(C)c(N(CN2C(=O)c3ccccc3C2=O)C(=O)C(F)(F)F)c1`, -2.98%; as for `O=C(c1ccccc1F)N1CCNCC1`, 1.13%.

Turning to `CCOc1ccc(-c2nnc(SCC(=O)N3CCCCC3CC)o2)cc1` (stereo not shown), the “% Inhibition @ 10 uM” value was 1.86%. For `Cc1nc(CNS(=O)(=O)c2ccccc2)cs1`, the “% Inhibition @ 10 uM” value is on record as -4.24%. The value for `CC1CC(C)CN(CCCNC(=O)C2CCN(S(=O)(=O)c3cccc4nsnc34)CC2)C1` (stereo not shown) was 3.53%; that for `Cc1ccsc1CCNS(=O)(=O)c1ccc(CN2C(=O)c3cccnc3C2=O)cc1` was 0.776%. Take `Cc1ccc2c(C)nc(/N=C(\N)NS(=O)(=O)c3ccccc3)nc2c1`: the “% Inhibition @ 10 uM” value is 3.36%. As for `Cc1nn(C)c(C)c1NC(=O)c1cnn2c(C(F)F)cc(-c3ccccc3)nc12`, the figure is -2.75%. As for `Cc1oncc1C(=O)Nc1ccc(Oc2ccccc2)cc1`, the figure is -2.32%. In the case of `COc1cccc(C2C(C(=O)c3ccc(Cl)cc3)=C(O)C(=O)N2Cc2ccco2)c1` (stereo not shown), the “% Inhibition @ 10 uM” value is recorded as -4.39%. `COc1ccc(N2C(N)=C(C#N)C(c3ccccc3)C3=C2CCCC3=O)cc1` (stereo not shown): the “% Inhibition @ 10 uM” value is on record as 3.72%.

With `c1ccc(-c2cc(NCCCn3ccnc3)n3c(n2)nc2ccccc23)cc1`, the “% Inhibition @ 10 uM” value was -4.67%.

Take `COCc1[nH]nc2c1C(c1cccnc1)C(C#N)=C(N)O2` (stereo not shown): the “% Inhibition @ 10 uM” value is given as 2.08%. Regarding `COCC(C)NC(=O)c1cc(-c2ccc(O)cc2)on1` (stereo not shown), the “% Inhibition @ 10 uM” value is recorded as -1.28%. As for `CCOC(=O)C1=C(CC)OC(N)=C(C#N)C1c1cccc(Cl)c1Cl` (stereo not shown), the figure is 10.5%; as for `CCOc1ccc(CNC(=O)c2cc3c(s2)-c2c(C)cccc2OC3)cc1`, -1.37%. For the compound `NC(=O)c1c(NC(=O)COc2ccccc2)sc2c1CCCC2`, the “% Inhibition @ 10 uM” value stood at 2.67%. As for `O=C(NCC1CCCO1)c1cc2c(s1)CS(=O)(=O)C2` (stereo not shown), the figure is -2.01%; as for `O=C(COc1ccccc1)Nc1cccc(C(F)(F)F)c1`, 1.44%; as for `C(=C\C1Nc2cccc3cccc(c23)N1)/c1ccco1`, -2.37%. The value for `CC(=O)NC1=NN(C(C)=O)C(C)(CCS(=O)(=O)c2ccc(Br)cc2)S1` (stereo not shown) was -1.42%. As for `Oc1c2c(nc3c(-c4ccccc4)c(Cc4ccccc4)nn13)CCCC2`, the figure is 3.32%; as for `COc1ccc(C2CC(=O)C(/C=N/c3ccccc3-c3ccccc3)=C(O)C2)cc1` (stereo not shown), -2.64%. As to `Cc1ccc(-n2c(C)cc(/C=C3/SC(=S)NC3=O)c2C)cc1`, the “% Inhibition @ 10 uM” value is reported as 0.392%. As for `CCOc1ccc(N(C(C)=O)C2=NC(=O)/C(=C/c3ccccc3O)S2)cc1`, the figure is 3.65%.
